According to patent publication EP4724501A1 (dated 2026):

Target: T1, cynoAXL, a cynomolgus AXL receptor fragment comprising all extracellular domains of the macaque AXL receptor, … (Cynomolgus macaque (Macaca fascicularis))
T1 construct: also called monkey AXL antigen
T1 chain: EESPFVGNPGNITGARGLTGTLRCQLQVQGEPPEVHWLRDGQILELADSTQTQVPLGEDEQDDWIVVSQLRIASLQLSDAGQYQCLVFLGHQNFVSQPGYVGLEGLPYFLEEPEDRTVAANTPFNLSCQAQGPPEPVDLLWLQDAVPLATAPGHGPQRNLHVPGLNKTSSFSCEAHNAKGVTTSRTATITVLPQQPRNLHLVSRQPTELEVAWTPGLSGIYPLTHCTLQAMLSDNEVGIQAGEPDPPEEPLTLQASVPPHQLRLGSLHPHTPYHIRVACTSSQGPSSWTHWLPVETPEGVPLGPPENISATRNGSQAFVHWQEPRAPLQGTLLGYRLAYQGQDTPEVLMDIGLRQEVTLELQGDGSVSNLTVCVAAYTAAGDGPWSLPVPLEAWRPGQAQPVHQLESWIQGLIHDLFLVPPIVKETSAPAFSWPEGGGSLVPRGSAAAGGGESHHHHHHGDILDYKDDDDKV
Experiment: ELISA, coated antigen, antibody titrated

- binding result: binds
B1: anti-AXL antibody 01_004_2 (antibody, human IgG1, kappa)
heavy: QVQLVQSGGGVVQPGRSLRLSCAASGFSFSFFGIHWIRQAPGKGLEWVAFTSRDGNDKYYADSVKGRFTISKDNSKNTVYLQMNSLRAEDTAVYYCGRGNLAFDIWGEGTLVTVSSASTKGPSVFPLAPSSKSTSGGTAALGCLVKDYFPEPVTVSWNSGALTSGVHTFPAVLQSSGLYSLSSVVTVPSSSLGTQTYICNVNHKPSNTKVDKRV[human IgG1 Fc with changes omitted here]
light: DIVMTQSPDSLTASAGERATINCKSSQSVLLSANQKNYLAWYQQKPGQSPRLLIYWASTRESGVPDRFSGSGSGTDFTLTISNLQPEDAAVYYCHQGYTLPWTFGSGTKVEIKRTVAAPSVFIFPPSDEQLKSGTASVVCLLNNFYPREAKVQWKVDNALQSGNSQESVTEQDSKDSTYSLSSTLTLSKADYEKHKVYACEVTHQGLSSPVTKSFNRGEC
notes: The heavy chain Fc carries S239D and I332E (EU numbering) and lacks the C-terminal GK
